# Measured values as given in PubChem BioAssay AID1963576 (National Center for Advancing Translational Sciences (NCATS), 2024).
# Screen size: about 46,000 compounds; about 60 (0.1%) were called active. Inconclusive results (about 3%) are left out. Calls come from the whole dose curve; as a rule, active = well fitted inhibition curve with a large enough effect; inconclusive = small, poorly fitted or top-dose-only effect; inactive = no such curve, though single readings can be large or run the other way. Some of the results follow.
# Test: Primary qHTS assay for Inhibitors of ovarian cancer metastasis using an organotypic tumor microenvironment (TME) model.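 For activity change, negative = inhibition: plate controls were DMSO wells for no effect and tomatine positive control wells for full effect.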 Note: nearly all actives have a fitted effect of over 65% in size.
# Details: SKOV3ip1-GFP adhesion/invasion on 3D omental model, fluorescence; series mostly up to 45.8 µM; activity change, negative = inhibition: at the top concentration
# Method in brief: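 qHTS, 4-pt dose (0.36-46 umol/L); SKOV3ip1-GFP, 1,200 cells/well, no FBS; primary omental fibroblast/mesothelial co-culture 48 h pre-grown; 2 h RT + 16 h 37 C; PBS wash, 4% PFA; GFP count 488/509 nm.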
Structure (SMILES),outcome,"activity change, negative = inhibition"
COC(=O)c1ccccc1NC(=O)Cn1c(=O)cc(C)c2c(C)nn(C)c21,inactive,–
Cc1cc(C)c2c(c1)c(C)cc1nnc(SCC(=O)c3ccc(F)cc3)n12,–,inactive: 1.62%
COc1ccc(Cl)cc1NC(=O)Cn1c(=O)c(-c2ccccc2NC(C)=O)nc2ccccc21,–,inactive: -5.77%
COc1ccc(N2CCN(C(c3ccccc3F)c3sc4nc(-c5ccco5)nn4c3O)CC2)cc1 (stereo not drawn),inactive,–
CCOC(=O)c1c(NC(=O)COc2cccc(C)c2C)sc(C(C)=O)c1C,inactive,–
COc1ccccc1C(=O)Nc1c(C(=O)Nc2ccccc2F)oc2ccccc12,inactive,–
Cc1ccc(NC(=O)CC2Sc3ccc(C(F)(F)F)cc3NC2=O)cc1 (stereo not drawn),–,inactive: 1.77%
COc1cccc(CNS(=O)(=O)c2ccc3c(c2)C(C(C)C)C(=O)N3)c1 (stereo not drawn),–,inactive: 9.53%
Cc1ccc2cccc(NC(=O)C(C)Oc3ccc(Cl)cc3Cl)c2n1 (stereo not drawn),inactive,–
CCOc1ccc(C(c2c(O)cc(C)n(Cc3ccco3)c2=O)N2CCCCC2)cc1 (stereo not drawn),–,inactive: -2.48%
Cc1c(C(=O)O)oc2c1-c1nn(Cc3ccc(Cl)cc3)cc1CC2,–,inactive: 3.31%
CN(C)CCNC(=O)C(=O)NCC(c1ccc2c(c1)OCO2)N1CCOCC1 (stereo not drawn),–,inactive: -1.26%
Cc1cc(-c2ccccc2)n2nc(-c3ccccc3)cc2n1,–,inactive: -3.45%
Cc1cc(C)c(NC(=O)CSc2nncn3c2cc2oc(C)cc23)c(C)c1,–,inactive: 12.2%
Cc1ccn2c(Nc3ccc(C(C)C)cc3)c(-c3cccnc3)nc2c1,–,inactive: -0.0792%
Cc1ccc(OCCSc2nc(C)c(Cc3ccccc3)c(=O)[nH]2)cc1,–,inactive: -0.465%
C[C@]12CCC(=O)C=C1[C@@H]1CC1[C@H]1[C@H]3[C@@H]4C[C@H]4[C@@]4(CCC(=O)O4)[C@@]3(C)CC[C@H]12 (stereo partly drawn),–,inactive: -7.44%
COc1ccc(CNC(=O)Nc2cn(CC(C)C)c(=O)c3ccccc23)cc1,inactive,–
Cc1cc(Cl)ccc1OCC(=O)N1CCC(c2nc3ccccc3s2)CC1,inactive,–
CCc1cccc(NC(=O)c2ccc(NC(=O)N3CCSc4ncccc43)cc2)c1,–,inactive: 6.55%
Cc1ccc(-c2nc(C(=O)NCc3ccccc3Cl)c3n2CCCCC3)cc1,inactive,–
Cc1ccc(NC(=O)N2CCC(CN3CCCC3)CC2)c(C)c1,inactive,–
CC(=O)c1cccc(NS(=O)(=O)c2cc3c(cc2C)N(C(C)=O)CCO3)c1,–,inactive: -15.2%
Cc1c(-c2nc(-c3ccc4c(c3)OCO4)no2)nnn1-c1ccc(C(C)C)cc1,–,inactive: 0.134%

Structure (SMILES),outcome,"activity change, negative = inhibition"
CCc1nn(CCCC(=O)N2CCN(c3cccc(OC)c3)CC2)c(=O)c2cc3occc3n12,inactive,–
Cc1ccc(C(=O)NCC(c2ccc3c(c2)OCO3)N2CCOCC2)cc1 (stereo not drawn),–,inactive: -2.2%
Cc1cccc(NC(=O)C(Cc2ccccc2)NS(=O)(=O)c2ccc3c(c2)c(=O)n(C)c(=O)n3C)c1 (stereo not drawn),–,inactive: 5.53%
COC(=O)c1cc(C)nc2c1c(=O)nc(SCc1ccccc1C)n2C1CC1,inactive,–
COC(=O)C1CCN(S(=O)(=O)c2ccc(N3CCCCS3(=O)=O)cc2)CC1,–,inactive: 6.22%
Cc1ccc2nc(-c3cc(NC(=O)COc4ccc(C)c(C)c4)ccc3Cl)oc2c1,–,inactive: -20.8%
Cc1ccc(S(=O)(=O)Nc2cc3c(cc2N2CCOCC2)n(C)c(=O)n3C)cc1,inactive,–
CCC(=O)Oc1ccc(C2Nc3ccccc3-c3nnc(SC)nc3O2)cc1 (stereo not drawn),–,inactive: -14%
Cc1ccc(NC(=O)N2CCN(c3cc(-c4noc(C)n4)ccc3C)CC2)c(F)c1,–,inactive: -12.8%
CCCn1c(=O)c2sccc2n2c(CCCC(=O)NCc3ccccc3)nnc12,–,inactive: -1.83%
O=C(COc1ccccc1Cl)Nc1ccc2nc(SCC(=O)N3CCCC3)sc2c1,–,inactive: -2.63%
CCOC(=O)c1noc2ncnc(Nc3cccc(OC)c3)c12,–,inactive: 95.1%
CCOC(=O)COc1ccc(F)cc1C(=O)c1ccn2nc(-c3ccc(Cl)cc3)cc2n1,–,inactive: -25.9%
COc1ccc(CCN2C(=O)c3[nH]nc(-c4ccccc4O)c3C2c2ccc(OC)c(OC)c2)cc1 (stereo not drawn),–,inactive: -16.5%
CCOC(=O)c1c(NC(=O)CSc2cn(CCNC(=O)c3c(F)cccc3F)c3ccccc23)sc2c1CCC2,inactive,–
CC(=O)Nc1c(C)nn(-c2ccccc2)c1N1CCC(C(=O)NCc2ccccc2Cl)CC1,inactive,–
O=C(CCn1nc(-c2ccc(Cl)cc2)ccc1=O)NCCc1ccccc1,–,inactive: -20%
Cc1ccc(S(=O)Cc2nc(-c3ccc(C(=O)NCc4cccc(C)c4)cc3)oc2C)cc1 (stereo not drawn),–,inactive: -4.91%
Clc1cccc(Cl)c1NC1=NCCN1,–,inactive: -21.3%
CCOC(=O)C1=C(CS(=O)(=O)c2ccc(OC)c(Cl)c2)NC(=O)NC1c1cccc(OC)c1 (stereo not drawn),–,inactive: 18.4%
COc1ccc(-c2cc(-c3ccccc3)nc(SCC(=O)Nc3ccccc3F)c2C#N)cc1,–,inactive: 4.95%
CCOc1ccc(-n2c(SCC(N)=O)nc3c(oc4ccccc43)c2=O)cc1,inactive,–
COc1cccc(NC(=O)CSc2nc(-c3ccccc3Cl)nc3c2Cc2c(CO)cnc(C)c2O3)c1,–,inactive: -20.1%
COc1ccc(C(=O)c2cn(Cc3ccccc3F)c3cc4c(cc3c2=O)OCO4)cc1,–,inactive: -0.887%
